Test results as given in publication PMC4336329 (PLoS ONE, 2015).
About 2,200 (0.71%) of roughly 310,000 compounds showed an effect of 50% or more. Effects have a minus sign here. The list shows a part of the results.

What follows are compounds tested against human ether-à-go-go-related gene (hERG) potassium channel (human, UniProt Q12809) (assay: primary screen, population patch clamp on CHO cells stably expressing hERG).
Chain of human ether-à-go-go-related gene (hERG) potassium channel (Q12809 whole entry, looked up): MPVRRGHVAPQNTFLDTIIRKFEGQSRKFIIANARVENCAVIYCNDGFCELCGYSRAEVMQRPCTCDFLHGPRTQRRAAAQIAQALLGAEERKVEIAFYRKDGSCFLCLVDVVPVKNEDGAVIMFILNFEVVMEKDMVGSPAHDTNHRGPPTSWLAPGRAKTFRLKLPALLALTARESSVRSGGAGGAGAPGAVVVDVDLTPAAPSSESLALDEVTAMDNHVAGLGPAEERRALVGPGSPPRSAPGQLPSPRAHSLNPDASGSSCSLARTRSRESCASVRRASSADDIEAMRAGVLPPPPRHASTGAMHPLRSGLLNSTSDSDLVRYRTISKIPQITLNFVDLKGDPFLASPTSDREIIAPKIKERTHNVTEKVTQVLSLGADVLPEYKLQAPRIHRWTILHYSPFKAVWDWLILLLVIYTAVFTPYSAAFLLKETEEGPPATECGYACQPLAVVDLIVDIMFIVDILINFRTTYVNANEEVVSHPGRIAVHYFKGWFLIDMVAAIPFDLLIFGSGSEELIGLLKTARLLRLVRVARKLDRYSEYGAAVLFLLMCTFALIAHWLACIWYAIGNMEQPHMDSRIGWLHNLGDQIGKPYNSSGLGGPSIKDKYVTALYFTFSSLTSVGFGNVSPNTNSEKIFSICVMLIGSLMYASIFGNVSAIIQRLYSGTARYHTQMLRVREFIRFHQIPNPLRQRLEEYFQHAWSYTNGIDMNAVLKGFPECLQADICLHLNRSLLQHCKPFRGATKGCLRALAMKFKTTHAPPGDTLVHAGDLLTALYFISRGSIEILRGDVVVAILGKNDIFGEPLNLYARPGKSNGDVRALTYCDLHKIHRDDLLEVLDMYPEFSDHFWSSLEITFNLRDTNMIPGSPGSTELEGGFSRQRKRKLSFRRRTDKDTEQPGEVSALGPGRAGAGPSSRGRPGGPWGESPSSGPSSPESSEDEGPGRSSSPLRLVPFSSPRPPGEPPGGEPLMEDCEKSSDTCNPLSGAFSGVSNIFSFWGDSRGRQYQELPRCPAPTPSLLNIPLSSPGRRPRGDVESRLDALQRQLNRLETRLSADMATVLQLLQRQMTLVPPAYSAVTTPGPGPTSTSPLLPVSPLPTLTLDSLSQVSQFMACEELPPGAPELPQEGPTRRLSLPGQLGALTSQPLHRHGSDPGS

Structure (SMILES)	hERG current change (%, negative = inhibition) at 1uM
O=C1COCC(=O)N1CCc1c[nH]c2ccccc12	17%
O=C(CP(=O)(O)CC(=O)c1ccccc1)c1ccccc1	11.2%
O=C(c1ccc(Cl)nc1)N1CCN(C/C=C/c2ccccc2)CC1	-7.89%
O=C(Nc1cccc(Cl)c1)C1CCCN(c2cnccn2)C1 (centres unmarked)	19.7%
O=C(CCc1nnc(C2CCCCC2)o1)N1CCN(c2ccccc2F)CC1	-3.35%
COc1ccc(NC(=O)c2ccc(C#N)cc2)cc1NS(=O)(=O)c1ccc(F)cc1	8.58%
Oc1cccc(C2c3[nH]c4ccccc4c3CCN2Cc2ccc3c(c2)CCO3)c1 (centres unmarked)	22.2%
NC(=O)c1nsc(C(=O)N(Cc2ccco2)C(C(=O)NCc2ccc(F)cc2)c2ccc(O)cc2)c1N (centres unmarked)	1.02%
CCOc1ccccc1Nc1ncnc2ccc(Br)cc12	19.1%
Cc1ccc(NC(=O)CN(C)C(=O)c2ccc(Cl)nc2)cc1	2.13%
CCOC(=O)C1CCN(C(=S)NC2CCCC2)CC1	13.2%
COc1cc(OC)cc(C(=O)OCC(=O)N(C)c2ccccc2)c1	9.32%
C/C(CC(=O)Nc1ccccn1)=N\NC(=O)C(=O)Nc1cccc(Cl)c1C	7.45%
CCOc1ccc(S(=O)(=O)Nc2cccc(C(=O)N3CCN(c4ccc(OC)cc4)CC3)c2)cc1	0.849%
CN(Cc1ccco1)C(=O)C1CCCN(c2ncnc3c2nc2n3CCCCC2)C1 (centres unmarked)	13%
CCN(CC)S(=O)(=O)c1ccc(C(=O)NCCN2C(=O)S/C(=C\c3cccnc3)C2=O)cc1	4.05%
Cc1ccc(NC(=O)c2cccs2)cc1S(=O)(=O)N(C)C	11.7%
CCN(Cc1ccncc1)C(=O)CCc1nnc(CCc2ccc(OC)cc2)o1	6.96%
CN(c1ccc(C(=O)NCc2ccccn2)cc1)S(C)(=O)=O	2.05%

Structure (SMILES)	hERG current change (%, negative = inhibition) at 1uM
N#Cc1c(NCc2ccccc2)ccnc1NCc1cccnc1	2.43%
O=C(O)CC[C@@H](C(=O)O)N1C(=O)c2ccccc2C1=O	3.58%
O=C(Nc1ccc(OC(F)(F)F)cc1)c1ccc(S(=O)(=O)N2CCOCC2)o1	-5.59%
Cc1ccccc1/C=C1\SC(=S)N(/N=C/c2cc([N+](=O)[O-])ccc2O)C1=O	17.2%
COc1cc(C(=O)Nc2ccc3c(c2)N(C(=O)CCN(C)C)c2ccccc2CC3)cc(OC)c1OC.Cl	11.7%
O=C(O)c1cc(NCc2c(F)cccc2Cl)ccc1N1CCOCC1	-15.3%
FC(F)(F)c1cccc(-c2noc(CN3CCOCC3)n2)c1	1.92%
CC1CCCN(S(=O)(=O)c2ccc3oc(=O)ccc3c2)C1 (centres unmarked)	7.95%
CC(C)c1ccc2c(c1)[C@H]1OCC[C@H]1[C@@H](c1cccs1)N2	4.11%
N#CC1=C(N)OC2=C(C(=O)CCC2)C12CCN(C(=O)OCc1ccccc1)CC2	-11.9%
c1ccc(OCc2nnc3n2CCCCC3)cc1	16.5%
Cc1[nH]n(-c2ccccc2)c(=O)c1N=Nc1ccc2c(c1)OCO2	11.1%
CCOc1ccnc(OCC)c1Br	32.8%
O=C(COC(=O)c1cc[n+]([O-])cc1)Nc1ccc(F)c([N+](=O)[O-])c1	6.84%
CCOC(=O)C1CCN(c2nc(-c3ccc(C)cc3)nc3ccccc23)CC1	17.5%
Cc1cc(/C=C2\C(=O)NC(=O)N(Cc3ccco3)C2=O)c(C)n1-c1ccc(O)cc1	10.5%
Cc1cc(C(=O)NCc2csc(-c3ccccc3)n2)no1	9.64%
O=C(CN1C(=O)S/C(=C\c2ccccc2)C1=O)Nc1cc([N+](=O)[O-])ccc1O	11.8%
CN(CC(=O)Nc1ccccc1Cl)C(=O)c1ccccc1Sc1ccccc1C#N	16.1%

Structure (SMILES)	hERG current change (%, negative = inhibition) at 1uM
CCN(CC)c1ccc2cc(C(=O)NNC(=O)c3ccc(S(=O)(=O)N4CCCCC4)cc3)c(=O)oc2c1	21.2%
COC(=O)c1ccc(NC(=O)CCN2CCN(c3ccccc3)CC2)cc1	7.64%
CC(=O)N1CCn2c3c(c4cc(C)ccc42)CCCC31 (centres unmarked)	8.2%
Cl.c1cc(CNC23CC4CC(CC(C4)C2)C3)ccn1	1.35%
Cc1c(CC(=O)NCC(=O)NCC(=O)O)c(=O)oc2cc3c(cc12)CCC(C)(C)O3	16.4%
CCn1c(CNC(=O)c2ccc(OC)c(OC)c2)nnc1SCC(=O)Nc1ccccc1	4.89%
CN(CC(CC(=O)Nc1nncs1)c1ccccc1)S(=O)(=O)c1ccccc1 (centres unmarked)	9.47%
COC(=O)c1ccc(CSc2ncnc3sc(C)c(C)c23)o1	15.1%
Clc1cccc(Cl)c1NC1=NCCC1	10.7%
COC(=O)Cc1c(C)nc2nc(-c3ccccc3)[nH]n2c1=O	11.9%
CC(=O)Nc1ccc(C(=O)OCC(=O)NC(=O)NC(C)(C)C)cc1	12%
COc1cc(C2c3[nH]c4ccccc4c3C[C@H]3C(=O)N(CCO)CC(=O)N23)cc(OC)c1OC (some centres unmarked)	4%
CCN1CCN(CC(=O)Nc2ccc(OC(F)(F)F)cc2)CC1.Cl	-29.4%
CC(C)c1ccc(/C=N/Nc2ccc(C(=O)O)cc2)cc1	2.29%
C=CCOc1cccc(C2C(C(=O)c3ccco3)=C(O)C(=O)N2Cc2cccnc2)c1 (centres unmarked)	11.8%
CN1C(=O)C(O)(CC(=O)c2cccs2)c2ccccc21 (centres unmarked)	11.4%
COc1ccccc1C(=O)O/N=C(\N)c1ccccn1	15%
COc1ccc(F)cc1S(=O)(=O)NCC(c1ccc2c(c1)OCO2)N1CCN(C)CC1 (centres unmarked)	-12.6%
